Source: US20080115231A1
Not every entry of the source has a single result; some have several. The list is limited to them. There may be further records. Values given together appear to be repeats on other runs, samples or individuals.

Molecular target: NAP-1 IgG (nesfatin-1 IgG)
Experiment: competitive EIA; unlabelled recombinant nesfatin-1 against biotin-labelled nesfatin-1 on immobilized nesfatin-1 IgG

B1: recombinant mouse nesfatin-1 (Working Example 16) (peptide)
peptide: VPIDVDKTKVHNTEPVENARIEPPDTGLYYDEYLKQVIEVLETDPHFREKLQKADIEEIRSGRLSQELDLVSHKVRTRLDEL
  sensitivity of the competitive EIA system: 4.6 ng/tube and 93 ng/ml
